{"source": "PubChem BioAssay AID686978", "about": "(National Center for Advancing Translational Sciences (NCATS), 2013)", "note": "Among all 420,000 compounds or so, about 64,000 (15%) were called active. The inconclusive results got no clear call from the source; some entries with a clear call stand among them for comparison. Calls come from the whole dose curve; as a rule, active = well fitted inhibition curve with a large enough effect; inconclusive = small, poorly fitted or top-dose-only effect; inactive = flat fitted curve, though single readings scatter. Potencies of inconclusive entries are left out as doubtful fits. % is set by controls: 0 for no effect and ±100 for the full control effect; potency is the fitted concentration of half-maximal effect; tags give direction and shape of the fitted curve."}
{"assay": "qHTS for Inhibitors of human tyrosyl-DNA phosphodiesterase 1 (TDP1): qHTS in cells in absence of CPT; note: nearly all actives have a fitted effect of over 55% in size", "details": "DT40 Tdp1-/- hTDP1 cells, no CPT, ATP luminescence, 48 h; activity change, negative = growth inhibition: at 46.2 µM (top of the series)", "procedure,_shortened": "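Cells were dispensed at 400 per well, compounds added by pin tool, plates incubated ≥48 hr at 37 °C, then CellTiter-Glo added for 30 min at room temperature before luminescence reading. Line: DT40 Tdp1-/- complemented with hTDP1; camptothecin omitted.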"}
{"molecule": "COc1cc(OC)c2c(C)c(CC(=O)N3CCCCC3)c(=O)oc2c1", "activity change, negative = growth inhibition": "inactive: -22.3%"}
{"molecule": "Cc1ccc2c(c1)COc1c3ccc(C(=O)N[C@@H](C)CO)cc3nn1-2", "Potency": "inconclusive [inhibitor, single point]"}
{"molecule": "CC1CCN(C(=O)c2[nH]cnc2C(=O)NCCCCCNC(=O)OC(C)(C)C)CC1", "activity change, negative = growth inhibition": "inactive: -22.1%"}
{"molecule": "COc1ccc(C(=O)N(Cc2nc(-c3ccc(C)cc3)no2)C2CCCCC2)cc1OC", "Potency": "inconclusive [inhibitor, single point]"}
{"molecule": "Fc1ccc(CN2CCN(c3ncnc4scc(-c5ccccc5)c34)CC2)cc1", "Potency": "inconclusive [inhibitor, single point]"}
{"molecule": "CCOc1cc(C#N)c(NC(=O)c2ccco2)cc1OCC", "Potency": "active: 6.51 µM"}
{"molecule": "O=C1C[C@@H](c2ccc(O[C@@H]3O[C@H](CO)[C@@H](O)[C@H](O)[C@H]3O)cc2)Oc2cc(O)ccc21", "activity change, negative = growth inhibition": "inactive: 1.53%"}
{"molecule": "CCCCOc1nc2ccccc2nc1C(C#N)C(=O)NC1CCCCC1", "note": "(stereo unspecified)", "Potency": "inconclusive [inhibitor, single point]"}
{"molecule": "COc1ccc(Br)cc1CNC(=O)C1CCN(S(=O)(=O)N2CCCCC2)CC1", "Potency": "inconclusive [inhibitor, single point]"}
{"molecule": "O=S(=O)(c1cccs1)N1CCN(c2nc(-c3cccs3)nc3ccccc23)CC1", "Potency": "active: 20 µM"}
{"molecule": "CCOC(=O)N1C=CC=C[C@@H]2[C@@H](N3C(=O)c4ccccc4C3=O)C(=O)N21", "Potency": "inconclusive [inhibitor, single point]"}
{"molecule": "CN(C)c1ccc2nc3c(=O)[nH]c(=O)nc-3n(CC(O)C(O)C(O)CO)c2c1", "note": "(stereo unspecified)", "Potency": "inconclusive [inhibitor, partial curve]"}
{"molecule": "COC(=O)c1ccccc1NC(=O)CN1CCC(NC(=O)c2ccc(C)cc2)CC1", "Potency": "active: 25.9 µM"}
{"molecule": "CCN(CC)CCCNc1oc(-c2ccc(OC)cc2)nc1C#N", "Potency": "inconclusive [inhibitor, single point]"}
{"molecule": "O=C(NNC(=O)c1cc2ccccc2cc1O)Nc1ccc(F)cc1F", "Potency": "inconclusive [inhibitor, single point]"}
{"molecule": "COc1ccc(N2CCN(C(=S)NCc3ccccc3)CC2)cc1", "Potency": "inconclusive [inhibitor, single point]"}
{"molecule": "OC(CNCc1ccccc1)COc1ccccc1", "note": "(stereo unspecified)", "activity change, negative = growth inhibition": "inactive: -10.1%"}
{"molecule": "O=C(CNC(=O)c1ccco1)NNC(=O)c1cccc(Cl)c1", "activity change, negative = growth inhibition": "inactive: 0.291%"}
{"molecule": "CC(C)n1c(=O)c2oc3ccccc3c2n(CC(=O)Nc2ccccc2Cl)c1=O", "Potency": "inconclusive [inhibitor, partial curve]"}
{"molecule": "CC(C)Cc1nnc(NC(=O)CCC(=O)NCc2ccccc2Cl)s1", "activity change, negative = growth inhibition": "inactive: -0.382%"}
{"molecule": "CCNC(=S)N/N=C(\\C)c1ccc(N2CCOCC2)cc1", "Potency": "inconclusive [inhibitor, single point]"}
{"molecule": "CC1CCN(S(=O)(=O)c2cn(CC(=O)Nc3ccc(C#N)cc3)cn2)CC1", "Potency": "inconclusive [inhibitor, single point]"}
{"molecule": "CSCCC(NC(=O)c1ccco1)C(=O)N1CCCC(C(F)(F)F)C1", "note": "(stereo unspecified)", "Potency": "inconclusive [inhibitor, single point]"}
{"molecule": "COc1cc2cc(CN(Cc3cccs3)C(=S)Nc3ccccc3)c(=O)[nH]c2cc1OC", "Potency": "active: 20.6 µM"}
{"molecule": "CC(C)(O)C#Cc1ccc(N2C(c3ccsc3)=Cc3ccc(F)cc3C2c2c[nH]c3ccccc23)cc1", "note": "(stereo unspecified)", "Potency": "active: 18.4 µM"}
{"molecule": "CCOc1ccc2nc(NC(=O)CSc3ccc(Cl)cc3)sc2c1", "Potency": "inconclusive [inhibitor, single point]"}
{"molecule": "CC(CO)NS(=O)(=O)c1cccc(Cl)c1F", "note": "(stereo unspecified)", "activity change, negative = growth inhibition": "inactive: -1.74%"}
{"molecule": "Cc1cccc(CCNC(=O)CCc2c(C)nc3c(c(C)nn3-c3ccccc3)c2C)c1", "Potency": "active: 14.6 µM"}
{"molecule": "COc1ccc2c(c1)CC(C(=O)Nc1cc(OC)c(OC)c(OC)c1)CO2", "note": "(stereo unspecified)", "Potency": "inconclusive [inhibitor, single point]"}
{"molecule": "O=C1Nc2ccccc2/C1=N\\N=C\\c1ccc(O)c(O)c1", "Potency": "inconclusive [inhibitor, single point]"}
{"molecule": "O=C(NC12CC3CC(CC(C3)C1)C2)c1ccc([N+](=O)[O-])o1", "Potency": "active: 23.1 µM"}
{"molecule": "O=C1NCCCC1C(=O)N1CCN(C(c2ccccc2)c2ccccc2)CC1", "note": "(stereo unspecified)", "activity change, negative = growth inhibition": "inactive: 0.383%"}
{"molecule": "CCOC(=O)c1cc2c(=O)n3ccccc3nc2n(C(C)C)c1=NC(=O)c1c(-c2c(F)cccc2Cl)noc1C", "Potency": "active: 8.2 µM"}
{"molecule": "COC(=O)c1ccccc1NC(=O)COc1ccc(S(=O)(=O)N2CCCC2)cc1C", "Potency": "inconclusive [inhibitor, single point]"}
{"molecule": "O=C(NC1CCCCCCC1)c1ccccc1O", "Potency": "inconclusive [inhibitor, single point]"}
{"molecule": "COc1ccc(OC)c(CNc2ncnc3onc(C)c23)c1", "Potency": "inconclusive [inhibitor, partial curve]"}
{"molecule": "CC1Cc2ccccc2N1CC(=O)NC(c1ccccc1)c1ccccc1", "note": "(stereo unspecified)", "Potency": "inconclusive [inhibitor, single point]"}
{"molecule": "CCCCCn1c(CN2CCN(C(=O)OCC)CC2)nc2c1c(=O)[nH]c(=O)n2C", "activity change, negative = growth inhibition": "inactive: -17.8%"}
{"molecule": "O=C(NCCSc1ccc(Cl)cc1)c1ccco1", "activity change, negative = growth inhibition": "inactive: -12.5%"}
{"molecule": "Clc1ccc(CNc2ncnc3onc(-c4ccc(Cl)cc4)c23)cc1", "Potency": "active: 18.4 µM"}
{"molecule": "CC(=O)c1ccc(-c2[nH]c3ccccc3c2CCN2C(=O)c3ccccc3C2=O)cc1", "Potency": "inconclusive [inhibitor, single point]"}
{"molecule": "CO/N=C/C(=N\\Nc1cc(OC)cc(OC)c1)C(=O)c1ccccc1", "Potency": "inconclusive [inhibitor, partial curve, poor fit]"}
{"molecule": "CC(=O)N1CC2(CC(c3ccc(Cl)cc3Cl)=NO2)CN1c1cccc(Cl)c1", "note": "(stereo unspecified)", "Potency": "inconclusive [inhibitor, single point]"}
{"molecule": "Cc1[nH]c2ccc(C(=O)N3CCC(C(N)=O)CC3)cc2c1C", "activity change, negative = growth inhibition": "inactive: 5.1%"}
{"molecule": "O=C1CCN(Cc2nnnn2CC2CCCO2)c2ccccc2N1", "note": "(stereo unspecified)", "activity change, negative = growth inhibition": "inactive: -3.96%"}
{"molecule": "CN1CCc2c1nc1ccccc1c2NC(=O)CN1CCCC1", "Potency": "inconclusive [inhibitor, single point]"}
